Experimental data: the RNAGym collection of RNA variant scans (doi:10.1073/pnas.2313332121)
Variants at the floor of the assay are shown more often than the library holds them.

B1: TPR 5TU (parent)
chain: GGAUCUUCUCGAUCUAACAAAAAAGACAAAUCUGCCACAAAGCUUGAGAGCAUCUUCGGAUGCAGAGGCGGCAGCCUUCGGUGGCGCGAUAGCGCCAACGUUCUCAACUAUGACACGCAAAACGCGUGCUCCGUUGAAUGGAGUUUAUCAUG

Variants of: B1
Experiment: polymerase ribozyme fitness, log enrichment relative to wild type (log ratio); higher = more active; in vitro selection for triplet polymerase activity
Summary of the method: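 A single round of triplicate in vitro selection, including frozen incubation at −7 °C, was applied to PCR-built, transcribed mutant libraries of each subunit of a heterodimeric triplet polymerase ribozyme. Illumina sequencing of input and output libraries retained genotypes with ≥10 input reads and ≥1 read per output. Fitness is the base-2 logarithm of genotype enrichment divided by wild-type enrichment, from inverse-variance-weighted replicate averages.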

Row | Variant | polymerase ribozyme fitness (log ratio)
1 | GGAUCUUCUCGAUCUAACAAAAAAGACAAAUCUGCCACAAAGCUUGAGAGCUUCUUCGGAUGCAGAGGCGGCAUCCUUCGGUGGCGCGAUAACGCCAACGUUCUCAACUAUGACACGCAAAACGCGUGCUCCGUUGAAUGCCGUUGAUCAUG | ≤ -4.2
2 | GGAUCUUCUCGAUCUAACAAAAAAGACAAAUCUGCCACAAAGCUUGAGAGCUUCUUCGGAUGCAGAGGCGGCAGCCUUCAGUGGCGCGAUAGCGCCAACGUUCUCAACUAUGACACGCAAAACGCGUGCUCCGUUGAAUGGAGUUUAUCAUG | -3.35
3 | GGAUCUUCUCGAUCUAACAAAAAAGACAAAUCUGCCACAAAGCUUGAGAGCUUCUUCGGAUGCAGAGGCGGCAGCCUUCGGUGGCGCGAUAGCGCCAACGUUCUCAACUAUGACACGCAUAACGCGUGCGCCGUUGAAUGGAGUUUAUCAUG | ≤ -4.2
4 | GGAUCUUCUCGAUCUAACAAAAAAGACAAAUCUGCCACAAAGCUUGAGAGCUUCUUCGGAUGCAGAUUCGGCAGCCUUCGGUGGCGCGAUUGCGCCAACGUUCUCAACUAUGACACGCAAAACGCGUGCUCCGUUGAAUGCAGUUUAUCAUG | ≤ -4.2
5 | GGAUCUUCUCGAUCUAACAAAAAAGACAAAUCUGCCACAAAGCUUGAGAGCAACUUCGGUAGCAGAGGGGGCAGCCUUCGGUGGCGCGAUAGCGCUAACGUUCUCAACUAUGACACGCAAAACGCGUGCUCCGUUGAAUGGAGUUUAUCAUG | -3.74
6 | GGAUCUUCUCGAUCUAACAAAAAAGACAAAUCUGCCACAAAGCUUGAGAGCUUCAUCGGAUGCAGAGGCGGCAGCCUUCGGUGGAGCGAUAGCGCCAACGUUCUCAACUAGGACACGCAAAACGUGUGCUCCGUUGAAUGCAGUUCAUCAUG | ≤ -4.2
7 | GGAUCUUCUCGAUCUAACAAAAAAGACAAAUCUGCCACAAAGCUUGAGAGCUUCUUCGGAUGCAGAGGCGGCAGCCUUCGGUGGCGCGAUAGCGUCAAGGUUCUCAACUAUGACACGCAACACGCGUGCUCCGUUGAAUGGAGUUUAUCAUG | ≤ -4.2
8 | GGAUCUUCUCGAUCUAACAAAAAAGACAAAUCUGCCACAAAGCUUGAGAGCUUCUUCGGAUGCAGAGGCGGCAGCCUUCGGUGGCGCGAUAGCGCUAACGGUCUCAACUAUGACACGCAAAACGCGUGCUCCGUUGAAUGGAGUGUAUCAUG | -4.1
9 | GGAUCUUCUCGAUCUAACAAAAAAGACAAAUCUGCCACAAAGCUUGAGAGCUUCUUCGGAUGCAGAGGCGGCAACUUUCGGUGGCGCGAUAGCGCCAACGUAAUCAACUAUGACACGCAAAACGCGUGCUCCGUUGAAUGGAGUUUAUCAUG | ≤ -4.2
10 | GGAUCUUCUCGAUCUAACAAAAAAGACAAAUCUGCCACAAAGCUUGAGAGCAACUUCGGAUGCAGAGGCGGCAGCCUUCGGUGGCGCGAUAGCGCCAACGUUCUCAACUAUGACACGCAAAACGCGUGCUCCGUUGUAUGGAGUUUAUCAUG | ≤ -4.2
11 | GGAUCUUCUCGAUCUAACAAAAAAGACAAAUCUGCCACAAAGCUUGAGAGCAACUUCGGAUGCAGAGGCGGCAGCCUUCGGUGGCGCGAUAGCGCCAACGUUCUCAACUGUGACACGCAAAACGCGUGCUCCGUUGAAUGGAGUAUAUCAUG | ≤ -4.2
12 | GGAUCUUCUCGAUCUAACAAAAAAGACAAAUCUGCCACAAAGCUUGAGAGCAACUUCGGAUGCAGAGGCGGCGGCCUUCGGUGGCACGAUAGUGACUACGUUCUCAACUAUGAUACGCAAAACGCGUGCUCCGUUGAAUGGAGUUUAUCAGG | ≤ -4.2
13 | GGAUCUUCUCGAUCUAACAAAAAAGACAAAUCUGCCACAAAGCUUGAGAGCUUCUUCGGAUGCAGAGGCGGCAGCCUUCGUUGGCGCGAUAGCGCCAACGUUCUCAACUAUGACACGCAAAACGCGUGCUCUGUUGAAUGGAAUUUAUCAUG | ≤ -4.2
14 | GGAUCUUCUCGAUCUAACAAAAAAGACAAAUCUGCCACAAAGCUUGAGAGCUUCUUCGGAUGCAGAGGCGGCAGCCUUCGGUGGCGCCAUAGCGCCAACGUUCUCAACUAUGACACGCAAAACGCGUGCUCCGUUGAAUGGAGUUUAUCAUG | ≤ -4.2
15 | GGAUCUUCUCGAUCUAACAAAAAAGACAAAUCUGCCACAAAGCUUGAGAGCUUCUUCGUAUGCAGAGGCGGCAGCCUUCGGUAGCGCGAGAGCGCCAACGUUCUCAACUAGGGCACGCAAAACGCGUGCUCCGUUGAAUGAAGUUUAUCAUG | ≤ -4.2
16 | GGAUCUUCUCGAUCUAACAAAAAAGACAAAUCUGCCACAAAGCUUGAGAGCUUCUUCGAAUGCAGAGGCGGCUGCCUUCGGUGGAACGAUAGCGCCAACGUUCUCAACUAUGACACGCAAAACGCGUGCUACGUUGAAUGGAGUGUAUCAUG | ≤ -4.2
17 | GGAUCUUCUCGAUCUAACAAAAAAGACAAAUCUGCCACAAAGCUUGAGAGCUUCUUCGGAUGCAGAGGCGGCAGCCUUCGGUCGCGCGAUAGCGCCAACGUUCUCUACUAUGACACGCAAAACGCGUGCUCCGUUGAAUGGAGUUUAUCAUG | ≤ -4.2
18 | GGAUCUUCUCGAUCUAACAAAAAAGACAAAUCUGCCACAAAGCUUGAGAGCUUCUUCGGAUGCAGAGGCGGCAGCCGUCGGUGGAGCGAUAGCGCCAACGUUCUCAACUAUGAGACGGAAAACGCGUGCUCCGUUGAAUGGAGUUUAUGAUG | ≤ -4.2
19 | GGAUCUUCUCGAUCUAACAAAAAAGACAAAUCUGCCACAAAGCUUGAGAGCUUGUUCGGAUGCAGAGGCGGCAGCCUUCGGUGGCGCGAUAGCGCCAACGUUCUCAACUAUGACACGCAAAACGCGUGCUCCGUUGAAUGGAGUUUAUCAUG | -2.21

Row | Variant | polymerase ribozyme fitness (log ratio)
20 | GGAUCUUCUCGAUCUAACAAAAAAGACAAAUCUGCCACAAAGCUUGAGAGCUUCUUCGGAGGCAGAGGCGGCAGCCUUCGGUGGCGCGAUGGCGCAAACGUUCUCAACUAUGACACCCAAAACGCGUGCUCCGUUGAAUGGAGUUUAUCAUG | -3.76
21 | GGAUCUUCUCGAUCUAACAAAAAAGACAAAUCUGCCACAAAGCUUGAGAGCUUCUUCGGAUGCAGAGGCGGCAACCUUCGGUGGCGCGUUAGCGCCAACGUUCUCGACUAUGACACGCUUAGCGCGUGCUCCGUUGAAUGGAGUUUAUCAUG | ≤ -4.2
22 | GGAUCUUCUCGAUCUAACAAAAAAGACAAAUCUGCCACAAAGCUUGAGAGCUUCUUCGGAUGCAGAGGCGGCAGCCUUCGGUGGCGCGAUAGCGACAACGUUGUCAACUAUGACAGGCAAAACGCGUGCUCCUUUGAAUGGAGUUUAUCAUG | ≤ -4.2
23 | GGAUCUUCUCGAUCUAACAAAAAAGACAAAUCUGCCACAAAGCUUGAGAGCAACUUCGGAUGCAGAGGCGGCAGCCUUCGGUGGCGCGAUAGCGCCAACGUUCUCAACUAUGACGCGCAAAACGCGUGCUCCGUUGAAUGGAGUUUAUCAUG | -0.769
24 | GGAUCUUCUCGAUCUAACAAAAAAGACAAAUCUGCCACAAAGCUUGAGAGCAACUUCGGUGGCAGAGGCGGGAGCCUUCGGUGGCUCGAUAGCGCCAACGUUCUCAAGUAUGACACGCAUAACGCGUGCUCCGUUGAAUGGAGUUUAUCAUG | ≤ -4.2
25 | GGAUCUUCUCGAUCUAACAAAAAAGACAAAUCUGCCACAAAGCUUGAGAGCUUCUUCGGAUGCAGAGGCGGCAGCCUUCGGUGGCGCGAUAGGGCCAACGUUCUCAACUAAGUCACGCAAAACGCGUGCUCCGUUGAAUGGAGUUUAUCAUG | ≤ -4.2
26 | GGAUCUUCUCGAUCUAACAAAAAAGACAAAUCUGCCACAAAGCUUGAGAGCUUCUUCGGAUGCAGAGGCGGCAGCAUUCGGUGGCGCGAUAGCGCCAACGUUCUCAACUAUGAAACGCAAAACGCGUGCUCCGUUGAAUGAAGUUGAUCAUG | ≤ -4.2
27 | GGAUCUUCUCGAUCUAACAAAAAAGACAAAUCUGCCACAAAGCUUGAGAGCUUCUUCGGAUGCAGAUGCGGCAGCCUUCGGUGGUGCGAUAGCGCCAACGUUCUGAACUAUGAAACGCAAAACGCGUGCUCCGUUGAAUGGAGUUUCUCAUG | ≤ -4.2
28 | GGAUCUUCUCGAUCUAACAAAAAAGACAAAUCUGCCACAAAGCUUGAGAGCUUCUUCGGAUGCAGAGGCGGCAGCCUUCGGUGGCGAGAUAGCGCCAACGUUCUCAACUAUGACACGCAAAACGCGUGCUCCGUUGAAUGGAGUUCAUCAUG | ≤ -4.2
29 | GGAUCUUCUCGAUCUAACAAAAAAGACAAAUCUGCCACAAAGCUUGAGAGCAACUUCGGUUGUAGAGGCGGCAGUCGUCGGUGGCGCGAUAGGGCCAACGUUCUCAACUAUGACACGCAAAGCGCGUGCUCCGUUGAAUGGAGUUUAUGAAG | ≤ -4.2
30 | GGAUCUUCUCGAUCUAACAAAAAAGACAAAUCUGCCACAAAGCUUGAGAGCAACUUCGGAUGCAGAGGCGGCAGCCUUCGGUGGCGCGAUAGCGCCAACGUUCUCUACUAUGACACGCAAAACGCGUGCUCCGUUGAAUGGAGUUUAUCAUG | -1.9
31 | GGAUCUUCUCGAUCUAACAAAAAAGACAAAUCUGCCACAAAGCUUGAGAGCAACUUCGGAUGCAGAGGCGGCAGCCUUCGGUGGCGCGUUAGCGCCAACGUUCUCAACUAUGACACGCAAAACGCGUGCUCCGUUGAAUGGAGUUUAUCAUG | -0.481
32 | GGAUCUUCUCGAUCUAACAAAAAAGACAAAUCUGCCACAAAGCUUGAGAGCUUCUUCGGAUGCAGAGGCGGCACCCUUCGGUGGCGCGAUAGCGCAAACGUUCUCAACUGUGACACGCAAAACGCGUGCUCCGUUGAAUGGAGUUUAUCAUG | ≤ -4.2
33 | GGAUCUUCUCGAUCUAACAAAAAAGACAAAUCUGCCACAAAGCUUGAGAGCUUCUUCGGAUGCAGAGGCGGCAGCCUUCGGUGGCGCGAUUGCGCCAACGUUCUCAACUAUGACACGCAAAACGCGUGCUCCGUUGAAGGGAGAUUAUCAUG | ≤ -4.2
34 | GGAUCUUCUCGAUCUAACAAAAAAGACAAAUCUGCCACAAAGCUUGAGAGCUUCAUCGGAUGCAGAAGCGGCAGCCUUCGGUGGCGCGAUAGCGCCAACGUUCGCAACUAUGACACGCAAAACGCGUGCUCCGUUGAAUGGAGUUUAUCAUG | ≤ -4.2
35 | GGAUCUUCUCGAUCUAACAAAAAAGACAAAUCUGCCACAAAGCUUGAGAGCUUCUUCGGAUGCAGAGGCGGCAGCCUUCGGUAGCGCGACAGCGCCAACGUUCUCUACUAUGACACGCAAAACGCGAGCUCCGUUGAAUGGAGUUUAUCAUG | ≤ -4.2
36 | GGAUCUUCUCGAUCUAACAAAAAAGACAAAUCUGCCACAAAGCUUGAGAGCUUCUUCGGAUGCAGAGGCGGCAGCCUUCGGUGGCGCGAUAGCGCCAACGUUCUCAACUAUGACACGUAAAACGCGUGCUCCGUUGAAUGGAGUUGAUCAUG | -3.62
37 | GGAUCUUCUCGAUCUAACAAAAAAGACAAAUCUGCCACAAAGCUUGAGAGCAACUUCGGAUGCAGAGGCGGCAGCCUUCGGUGGCGCGAUAGCGCCAGCGGUCUCAACUAUGACACGCAAAACGCGUGCUCCGUUGAAUGGAGUUUAUCAUG | -1.25
38 | GGAUCUUCUCGAUCUAACAAAAAAGACAAAUCUGCCACAAAGCUUGAGAGCUUCUUCGGAUGCAGAGGCGGCAGCCUUCGGUGGCGCGAUAGCGCCAACGUUCUCAACUAUGACACGCAAAACGCGUGCUCCGUUGAAGGGAGCUUAUCAUG | -1.12
